B1: Caulobacter ParB omega fusion; a variant is named by its letters at X, in order, B8GW30 (parent)
chain: MESVVVGEPGMSEGRRGLGRGLSALLGEVDAAPAQAPGEQLGGSREAPIEILQRNPDQPRRTFREEDLEDLSNSIREKGVLQPILVRPSPDTAGEYQIVAGERAWRAAQRAGLKTVPIMVRELDDLAVLEIGIIENVQRADLNVLEEALSYKVLMEKFERTQENIAQTIGKSXSHVANXMRLLXLPDEVQSYLVSGELTAXHARAIAAAADPVALAKQIIEGGLSVRETEALARKAPNLSAGKSKGGRPPRVKDTDTQALESDLSSVLGLDVSIDHRGSTGTLTITYATLEQLDDLCNRLTRGI

In all, about 81,000 sequences were measured (“one-hybrid fitness for binding parS DNA”: median about -0.17, highest 2% from about 0.51 on). The list shows a part of the results.

Variants of B1 are the subject of this test. Put plainly: one-hybrid fitness for binding parS DNA (scaled: cognate 1, non-cognate 0); higher = stronger binding. The settings on record: with parS DNA site. In a few lines:
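Fitness here means the log change in variant-to-wild-type read ratio between plasmids sequenced before and after selection. That scale was set so cognate equals 1 and non-cognate equals 0. The selection was a bacterial one-hybrid screen of Caulobacter ParB libraries, four specificity codons randomised, in E. coli USO carrying a HIS3 reporter with the site 19 bp from the promoter, grown 48 hours at 37°C on M9-minus-histidine with 0.1 mM IPTG and 5 mM 3-AT.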
Consider DMTN, for which the “one-hybrid fitness for binding parS DNA” value was no more than 0.2.

Turning to DPWK, the “one-hybrid fitness for binding parS DNA” value was no more than 0.2.

For the variant VAWC, the “one-hybrid fitness for binding parS DNA” value is no more than 0.2.

As for SGSC, the “one-hybrid fitness for binding parS DNA” value is no more than 0.2.

For MPRE, the “one-hybrid fitness for binding parS DNA” value was no more than 0.2.

Turning to VMIM, the “one-hybrid fitness for binding parS DNA” value was no more than 0.2.

In the case of YWVI, the “one-hybrid fitness for binding parS DNA” value was 0.273.

As for VALC, the “one-hybrid fitness for binding parS DNA” value was no more than 0.2.

As for ARIR, the “one-hybrid fitness for binding parS DNA” value was no more than 0.2.

Turning to KRMD, the “one-hybrid fitness for binding parS DNA” value was no more than 0.2.

For the variant RRYV, the “one-hybrid fitness for binding parS DNA” value is no more than 0.2.

Take VNNR: the “one-hybrid fitness for binding parS DNA” value is no more than 0.2.

Turning to SDFC, the “one-hybrid fitness for binding parS DNA” value is no more than 0.2.

For the variant DSTS, the “one-hybrid fitness for binding parS DNA” value was no more than 0.2.

As for PEKS, the “one-hybrid fitness for binding parS DNA” value is no more than 0.2.

Regarding IGKV, the “one-hybrid fitness for binding parS DNA” value was no more than 0.2.

On to LQAR, for which the “one-hybrid fitness for binding parS DNA” value is no more than 0.2.

For the variant PYII, the “one-hybrid fitness for binding parS DNA” value is no more than 0.2.

Regarding DLWA, the “one-hybrid fitness for binding parS DNA” value was no more than 0.2.

As for NWPD, the “one-hybrid fitness for binding parS DNA” value was no more than 0.2.

Turning to LHSY, the “one-hybrid fitness for binding parS DNA” value was no more than 0.2.

On to AMEV, for which the “one-hybrid fitness for binding parS DNA” value was no more than 0.2.

NSQT: the “one-hybrid fitness for binding parS DNA” value is no more than 0.2.

In the case of HHRT, the “one-hybrid fitness for binding parS DNA” value was no more than 0.2.

In the case of EVKL, the “one-hybrid fitness for binding parS DNA” value is no more than 0.2.

Regarding TSPG, the “one-hybrid fitness for binding parS DNA” value is no more than 0.2.

As for ETVF, the “one-hybrid fitness for binding parS DNA” value was no more than 0.2.

For the variant RITI, the “one-hybrid fitness for binding parS DNA” value was no more than 0.2.

On to KEHG, for which the “one-hybrid fitness for binding parS DNA” value is no more than 0.2.

For LSMW, the “one-hybrid fitness for binding parS DNA” value was no more than 0.2.

LQPC: the “one-hybrid fitness for binding parS DNA” value was no more than 0.2.

Consider DAAA, for which the “one-hybrid fitness for binding parS DNA” value is no more than 0.2.

Consider KRDK, for which the “one-hybrid fitness for binding parS DNA” value is no more than 0.2.

In the case of HKNW, the “one-hybrid fitness for binding parS DNA” value was no more than 0.2.

On to HLCW, for which the “one-hybrid fitness for binding parS DNA” value was no more than 0.2.

Regarding HPPP, the “one-hybrid fitness for binding parS DNA” value was no more than 0.2.

As to APDG, the “one-hybrid fitness for binding parS DNA” value was no more than 0.2.

Regarding QLTH, the “one-hybrid fitness for binding parS DNA” value is no more than 0.2.

Turning to QKCF, the “one-hybrid fitness for binding parS DNA” value was no more than 0.2.

Regarding IYYC, the “one-hybrid fitness for binding parS DNA” value is no more than 0.2.

For the variant RVEW, the “one-hybrid fitness for binding parS DNA” value was no more than 0.2.

Turning to RFMK, the “one-hybrid fitness for binding parS DNA” value is no more than 0.2.

For the variant IMFV, the “one-hybrid fitness for binding parS DNA” value was no more than 0.2.

Regarding DRNT, the “one-hybrid fitness for binding parS DNA” value is no more than 0.2.

As for RYTW, the “one-hybrid fitness for binding parS DNA” value is no more than 0.2.

Take GQQY: the “one-hybrid fitness for binding parS DNA” value was no more than 0.2.

In the case of RPEY, the “one-hybrid fitness for binding parS DNA” value was no more than 0.2.

DPTM: the “one-hybrid fitness for binding parS DNA” value was no more than 0.2.

As to WSSV, the “one-hybrid fitness for binding parS DNA” value is no more than 0.2.

As for YAQM, the “one-hybrid fitness for binding parS DNA” value was no more than 0.2.

On to DTLA, for which the “one-hybrid fitness for binding parS DNA” value was no more than 0.2.

With RYCY, the “one-hybrid fitness for binding parS DNA” value was found to be 0.39.

Take SIIV: the “one-hybrid fitness for binding parS DNA” value was no more than 0.2.

Regarding RQIQ, the “one-hybrid fitness for binding parS DNA” value was no more than 0.2.

With WTDE, the “one-hybrid fitness for binding parS DNA” value is no more than 0.2.

For NHHS, the “one-hybrid fitness for binding parS DNA” value was no more than 0.2.

Turning to SGPW, the “one-hybrid fitness for binding parS DNA” value was no more than 0.2.

For WSDC, the “one-hybrid fitness for binding parS DNA” value is no more than 0.2.

Take IARR: the “one-hybrid fitness for binding parS DNA” value is no more than 0.2.

In the case of ATRS, the “one-hybrid fitness for binding parS DNA” value was no more than 0.2.

With YVDF, the “one-hybrid fitness for binding parS DNA” value is no more than 0.2.

With NEPG, the “one-hybrid fitness for binding parS DNA” value was no more than 0.2.

In the case of DFNT, the “one-hybrid fitness for binding parS DNA” value is no more than 0.2.

As for AHDG, the “one-hybrid fitness for binding parS DNA” value was no more than 0.2.

With EVRV, the “one-hybrid fitness for binding parS DNA” value was no more than 0.2.

With RMDD, the “one-hybrid fitness for binding parS DNA” value was no more than 0.2.

On to HPAW, for which the “one-hybrid fitness for binding parS DNA” value is no more than 0.2.

On to ITAD, for which the “one-hybrid fitness for binding parS DNA” value was no more than 0.2.

As to RHDG, the “one-hybrid fitness for binding parS DNA” value was 0.917.

For RGAI, the “one-hybrid fitness for binding parS DNA” value was no more than 0.2.

With HKPR, the “one-hybrid fitness for binding parS DNA” value is no more than 0.2.

With KMSM, the “one-hybrid fitness for binding parS DNA” value was no more than 0.2.

Consider KCTN, for which the “one-hybrid fitness for binding parS DNA” value is no more than 0.2.

For MGLC, the “one-hybrid fitness for binding parS DNA” value was no more than 0.2.

Consider WRKL, for which the “one-hybrid fitness for binding parS DNA” value was no more than 0.2.

With DTNM, the “one-hybrid fitness for binding parS DNA” value is no more than 0.2.

As to QFLL, the “one-hybrid fitness for binding parS DNA” value was no more than 0.2.

The values are drawn from a collection of fitness landscapes (doi:10.1016/j.celrep.2020.107928).
